# The other results are listed elsewhere or left out.
# B1: F17bG (Escherichia coli), Q47200 (protein)
# chain: MTNFYKVFLAVFILVCCNISHAVVSFIGSTENDVGPSQGSYSSTHAMDNLPFVYNTGYNIGYQNANVWRIGGGFCVGLDGKVDLPVVGSLDGQSIYGLTEEVGLLIWMGDTNYSRGTAMSGNSWENVFSGWCVGNYLSTQGLSVHVRPVILKRNSSAQYSVQKTSIGSIRMRPYNGSSAGSVQTTVNFSLNPFTLNDTVTSCRLLTPSAVNVSLAAISAGQLPSSGDEVVAGTTSLKLQCDAGVTVWATLTDATTPSNRSDILTLTGASTATGVGLRIYKNTDSTPLKFGPDSPVKGNENQWQLSTGTETSPSVRLYVKYVNTGEGINPGTVNGISTFTFSYQ
# Tests used:
# Test in all cases: glycan array binding signal (z-score within array); higher = stronger binding
# Conditions in all cases: glycan notation: IUPAC condensed, linker removed
# [1] = molecular target: Fuc(a1-3)[Gal(b1-4)]GlcNAc
# Method in brief: (§1)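 Arrays were curated from the Consortium for Functional Glycomics database, 3228 in total, and kept only where the protein sequence was available. Binding is expressed as a within-array Z-score. This score was averaged across arrays of the same protein sequence at different concentrations or buffers and across linkers, and negative values can be read as non-binding.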
# [2] = molecular target: Fuc(a1-3)[Gal(b1-4)]GlcNAc(b1-4)Gal(b1-4)[Fuc(a1-3)]GlcNAc
# Method in brief: as §1
# [3] = molecular target: Fuc(a1-3)[Gal(b1-4)]GlcNAc(b1-4)Gal(b1-4)[Fuc(a1-3)]GlcNAc(b1-4)Gal(b1-4)[Fuc(a1-3)]GlcNAc
# Method in brief: as §1
# [4] = molecular target: Fuc(a1-3)[Gal3S(b1-4)]GlcNAc
# Method in brief: as §1
# [5] = molecular target: Fuc(a1-3)[GalNAc(b1-4)]GlcNAc
# Method in brief: as §1
# Fuc(a1-4)GlcNAc = molecular target: Fuc(a1-4)GlcNAc
# Method in brief: as §1
# Fuc(b1-3)GlcNAc = molecular target: Fuc(b1-3)GlcNAc
# Method in brief: as §1
# Gal(a1-2)Gal = molecular target: Gal(a1-2)Gal
# Method in brief: as §1
# Gal(a1-3)Gal = molecular target: Gal(a1-3)Gal
# Method in brief: as §1
# Gal(a1-3)Gal(b1-3)GlcNAc = molecular target: Gal(a1-3)Gal(b1-3)GlcNAc
# Method in brief: as §1
# Gal(a1-3)Gal(b1-4)Glc = molecular target: Gal(a1-3)Gal(b1-4)Glc
# Method in brief: as §1
# Gal(a1-3)Gal(b1-4)GlcNAc = molecular target: Gal(a1-3)Gal(b1-4)GlcNAc
# Method in brief: as §1
# [6] = molecular target: Gal(a1-3)Gal(b1-4)[Fuc(a1-3)]GlcNAc
# Method in brief: as §1
# Gal(a1-3)GalNAc = molecular target: Gal(a1-3)GalNAc
# Method in brief: as §1
# [7] = molecular target: Gal(a1-3)[Gal(a1-4)]Gal(b1-4)GlcNAc
# Method in brief: as §1
# Gal(a1-4)Gal(b1-4)Glc = molecular target: Gal(a1-4)Gal(b1-4)Glc
# Method in brief: as §1
# Gal(a1-4)Gal(b1-4)GlcNAc = molecular target: Gal(a1-4)Gal(b1-4)GlcNAc
# Method in brief: as §1
# Gal(a1-4)GlcNAc = molecular target: Gal(a1-4)GlcNAc
# Method in brief: as §1
# Gal(a1-6)Glc = molecular target: Gal(a1-6)Glc
# Method in brief: as §1
# Gal(b1-2)Gal = molecular target: Gal(b1-2)Gal
# Method in brief: as §1
# Gal(b1-3)Gal = molecular target: Gal(b1-3)Gal
# Method in brief: as §1
# Gal(b1-3)GalNAc = molecular target: Gal(b1-3)GalNAc
# Method in brief: as §1
# [8] = molecular target: Gal(b1-3)GalNAc(b1-3)Gal(a1-4)Gal(b1-4)Glc
# Method in brief: as §1
# [9] = molecular target: Gal(b1-3)GalNAc(b1-4)Gal(b1-4)Glc
# Method in brief: as §1
# [10] = molecular target: Gal(b1-3)GalNAc(b1-4)[Neu5Ac(a2-3)]Gal(b1-4)Glc
# Method in brief: as §1
# Gal(b1-3)GlcNAc = molecular target: Gal(b1-3)GlcNAc
# Method in brief: as §1
# [11] = molecular target: Gal(b1-3)GlcNAc(b1-3)Gal(b1-4)Glc
# Method in brief: as §1
# [12] = molecular target: Gal(b1-3)GlcNAc(b1-3)Gal(b1-4)GlcNAc
# Method in brief: as §1
# [13] = molecular target: Gal(b1-3)[Fuc(a1-4)]GlcNAc
# Method in brief: as §1
# [14] = molecular target: Gal(b1-3)[Fuc(a1-4)]GlcNAc(b1-3)Gal(b1-4)GlcNAc
# Method in brief: as §1
# [15] = molecular target: Gal(b1-3)[Fuc(a1-4)]GlcNAc(b1-3)Gal(b1-4)[Fuc(a1-3)]GlcNAc
# Method in brief: as §1
# [16] = molecular target: Gal(b1-3)[GlcNAc(b1-6)]GalNAc
# Method in brief: as §1
# [17] = molecular target: Gal(b1-3)[Neu5Ac(a2-6)]GalNAc
# Method in brief: as §1
# [18] = molecular target: Gal(b1-3)[Neu5Ac(a2-6)]GlcNAc(b1-6)Gal(b1-4)Glc
# Method in brief: as §1
# [19] = molecular target: Gal(b1-3)[Neu5Ac(b2-6)]GalNAc
# Method in brief: as §1
# [20] = molecular target: Gal(b1-4)GalNAc(a1-3)[Fuc(a1-2)]Gal(b1-4)GlcNAc
# Method in brief: as §1
# [21] = molecular target: Gal(b1-4)GalNAc(b1-3)[Fuc(a1-2)]Gal(b1-4)GlcNAc
# Method in brief: as §1
binder,measurement,setting,value
B1,glycan array binding signal (z-score),[1],-0.597
same,glycan array binding signal (z-score),[2],-0.046
same,glycan array binding signal (z-score),[3],-0.507
same,glycan array binding signal (z-score),[4],-0.137
same,glycan array binding signal (z-score),[5],-0.574
same,glycan array binding signal (z-score),Fuc(a1-4)GlcNAc,-0.562
same,glycan array binding signal (z-score),Fuc(b1-3)GlcNAc,-0.581
same,glycan array binding signal (z-score),Gal(a1-2)Gal,-0.473
same,glycan array binding signal (z-score),Gal(a1-3)Gal,-0.679
same,glycan array binding signal (z-score),Gal(a1-3)Gal(b1-3)GlcNAc,-0.608
same,glycan array binding signal (z-score),Gal(a1-3)Gal(b1-4)Glc,-0.565
same,glycan array binding signal (z-score),Gal(a1-3)Gal(b1-4)GlcNAc,-0.599
same,glycan array binding signal (z-score),[6],-0.563
same,glycan array binding signal (z-score),Gal(a1-3)GalNAc,-0.482
same,glycan array binding signal (z-score),[7],-0.266
same,glycan array binding signal (z-score),Gal(a1-4)Gal(b1-4)Glc,0.379
same,glycan array binding signal (z-score),Gal(a1-4)Gal(b1-4)GlcNAc,-0.527
same,glycan array binding signal (z-score),Gal(a1-4)GlcNAc,-0.593
same,glycan array binding signal (z-score),Gal(a1-6)Glc,-0.556
same,glycan array binding signal (z-score),Gal(b1-2)Gal,0.471
same,glycan array binding signal (z-score),Gal(b1-3)Gal,-0.498
same,glycan array binding signal (z-score),Gal(b1-3)GalNAc,-0.394
same,glycan array binding signal (z-score),[8],-0.619
same,glycan array binding signal (z-score),[9],-0.492
same,glycan array binding signal (z-score),[10],0.352
same,glycan array binding signal (z-score),Gal(b1-3)GlcNAc,-0.493
same,glycan array binding signal (z-score),[11],-0.533
same,glycan array binding signal (z-score),[12],-0.652
same,glycan array binding signal (z-score),[13],-0.578
same,glycan array binding signal (z-score),[14],-0.574
same,glycan array binding signal (z-score),[15],-0.582
same,glycan array binding signal (z-score),[16],1.08
same,glycan array binding signal (z-score),[17],-0.345
same,glycan array binding signal (z-score),[18],-0.44
same,glycan array binding signal (z-score),[19],-0.074
same,glycan array binding signal (z-score),[20],-0.608
same,glycan array binding signal (z-score),[21],0.161

# From the supplement of paper PMC8728848
